# In US20080118591A1, “Bactericidal Formulations” (priority 2004, published 2008):
# Some of these results come from one statement about several compounds together.
# System: gram-negative bacteria
# Assay: Rapid bactericidal effect of perfume ingredients (example 1, Mueller-Hinton broth, most probable number method)
# Assay type: cell-based
# Conditions: 30 s contact time; 0.1% or 0.2% (w/v) in Mueller-Hinton broth
# Method: A sufficiently rapid bactericidal activity of a perfume ingredient against gram-negative bacteria according to the invention is determined as follows. The perfume ingredient must have a reduction factor of bacterial viability of at least 20-fold when it is tested in a concentration of 0.2% in Mueller Hinton Broth with a contact time of 30 seconds as described below. The perfume ingredient is dissolved in dimethylsulfoxide (DMSO) in a concentration of 4% (w/v). An aliquot (10 μl) of the solution is added to individual wells of microtiter plates.
# 200 μl of Mueller-Hinton broth containing a bacterial inoculum of 2.5×10^6 cfu (colony forming units) is added. After 30 s contact time, 20 μl of the test solution is removed and added to 180 μl of a neutralising solution (containing 3 g lecithin, 30 g Tween® 80, 5 g sodium thiosulfate, 1 g histidine, 30 g saponin, 8.5 g sodium chloride, 1 g tryptone and 1000 ml water). After 1 min incubation, the sample is serially diluted 1:1 in Micotiter-plates containing 100 μl Mueller-Hinton Broth per well, and then incubated for 24 h at 37° C. The maximal dilution showing bacterial growth is recorded to determine the number of surviving bacteria (so-called most probable number method, which is a well-known microbiological method), and results are compared to control samples without added perfumery chemicals. Reduction in bacterial viability is thus calculated by dividing numbers of bacteria in control samples by the number surviving in the treated samples. […].
# Test organisms Escherichia coli (ATCC 10536), Salmonella typhimurium (ATCC 13311) and Pseudomonas aeruginosa (ATCC 15442) are used. For Pseudomonas aeruginosa the test solution contains additionally 0.1% EDTA.
# A large number of commercially-available materials including a collection of 900 perfumery chemicals is tested. The materials are dissolved in dimethylsulfoxide (DMSO) in a concentration of 4% (w/v). An aliquot (5 μl or 10 μl) of each solution is added to individual wells of microtiter plates. 200 μl of Mueller-Hinton broth containing a bacterial inoculum of 2.5×10^6 cfu (colony forming units) is added. After 30 s and 60 s contact time, 20 μl of the test solution is removed and added to 180 μl of a neutralising solution (containing 3 g lecithin, 30 g Tween® 80, 5 g sodium thiosulfate, 1 g histidine, 30 g saponin, 8.5 g sodium chloride, 1 g tryptone and 1000 ml water). After 1 min incubation, the samples are serially diluted 1:1 in Micotiter-plates containing 100 μl Mueller-Hinton Broth per well, and then incubated for 24 h at 37° C. The maximal dilution showing bacterial growth is recorded to determine the number of surviving bacteria (so-called most probable number method, which is a well-known microbiological method), and results are compared to control samples without added perfumery chemicals. Reduction in bacterial viability is thus calculated by dividing numbers of bacteria in control samples by the number surviving in the treated samples.
row,Compound,rapid (30 s) bactericidal activity on gram-negative bacteria (class)
1,CCCCCCCCCO [nonan-1-ol],very high (very high activity indicating an at least 100 fold reduction in bacterial viability at a concentration of 0.1% (w/v) perfume ingredient)
2,Cc1ccc(CC=O)cc1 [4-methyl-phenyl-acetaldehyde],sufficient (sufficient activity indicating an at least 20 fold reduction in bacterial viability at 0.2% (w/v))
3,CC1(C)C2CCC1(C)C(O)C2 (stereo not shown) [Borneol],sufficient (sufficient activity indicating an at least 20 fold reduction in bacterial viability at 0.2% (w/v))
4,CC(C)c1cccc2cccnc12 [8-isopropylquinoline],high (high activity indicating an at least 20 fold reduction in bacterial viability at 0.1% (w/v))
